Measured values reported in PubChem BioAssay AID1346428 (National Center for Advancing Translational Sciences (NCATS), 2018).
Hit rate of the full screen: of about 48,000 compounds, about 1,200 (2.5%) were called active. About 2% were inconclusive and are not listed.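 The calls were made as follows: active = activation of at least 60% and not above a set upper limit (about 1 call in 100 departs from these limits); inconclusive = activation of 40% to 60%, or above that upper limit; inactive = activation under 40%.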 This is one part of the list.

target: Probable G-protein coupled receptor 32 (Homo sapiens) (UniProt O75388); assay: qHTS for Agonists of Human Resolvin D1 Receptor DRV1; conditions: CHO-K1 GPR32 beta-arrestin PathHunter luminescence, 90 min; at 76.9 µM; active compounds read high; zero percent set by DMSO-only wells; also: 0% is about no effect
Chain of UniProt O75388 (O75388 whole entry, looked up): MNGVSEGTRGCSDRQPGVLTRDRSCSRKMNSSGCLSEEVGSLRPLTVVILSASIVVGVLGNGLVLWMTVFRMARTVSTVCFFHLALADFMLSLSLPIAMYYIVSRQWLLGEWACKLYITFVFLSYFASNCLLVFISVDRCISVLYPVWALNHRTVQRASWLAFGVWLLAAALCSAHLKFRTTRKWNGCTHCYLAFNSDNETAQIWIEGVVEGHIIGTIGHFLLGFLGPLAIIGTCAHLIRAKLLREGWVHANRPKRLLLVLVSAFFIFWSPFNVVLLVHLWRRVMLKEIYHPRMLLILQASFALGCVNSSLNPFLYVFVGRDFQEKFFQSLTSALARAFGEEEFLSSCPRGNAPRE
Summary of the method: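 Readings come from a cell-based beta-arrestin complementation format: CHO-K1 GPR32 stable cells (2,500/well) treated 90 min with compounds, then beta-Gal substrate added for 1 h before chemiluminescence imaging.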

Row | Compound | activation
1 | O=C(Nc1ccc2nn(-c3ccc(Cl)cc3)nc2c1)c1cc2ccccc2o1 | inactive: -23%
2 | Cc1ccccc1Nc1c(-c2ccc(N3CCOCC3)cc2)nc2ccc(Cl)cn12 | inactive: -23%
3 | Cc1ccccc1NC(=O)c1c(NC(=O)c2cccs2)sc2c1CCC(C)C2 (stereo not drawn) | inactive: -12.3%
4 | Cn1c(=O)n(C)c2cc(N3CCCCC3)c(NC(=O)c3c(F)cccc3F)cc21 | active: 118%
5 | Cc1ccc(OCc2cc(=O)n3ccsc3n2)c(NC(=O)c2ccco2)c1 | inactive: -2.58%
6 | COc1ccc(N(C)C(=O)C2CCN(S(=O)(=O)c3cc(Br)cc4c3N(C(C)=O)CC4)CC2)cc1 | inactive: -5.53%
7 | COc1ccc(-c2nc3cc(NC(=O)c4cc5ccccc5o4)ccc3o2)cc1 | inactive: 11.4%
8 | Cc1c(F)cc2c(=O)c(C(=O)O)cn3c2c1CCC3C (stereo not drawn) | inactive: -12.3%
9 | CCOC(=O)c1cc(-c2ccccc2)n(CCC(=O)NCCc2ccc(OC)c(OC)c2)c1C | inactive: -27.8%
10 | Cc1ccn2c(Nc3ccccc3C)c(-c3ccccc3)nc2c1 | inactive: -5.62%
11 | Cc1ccc(NCc2cccn2-c2nnc(N3CCC(C(=O)NCc4ccc(F)cc4)CC3)s2)cc1 | inactive: -21.6%
12 | CCn1ccc2cc(S(=O)(=O)N3CCC(C(=O)NCc4ccc(F)cc4)CC3)ccc21 | inactive: 21.4%
13 | Cc1cccc(OCC(=O)Nc2ccccc2OCc2cc(=O)n3cc(C)ccc3n2)c1 | inactive: -6.87%
14 | Cc1ccc(NC(=O)CSc2nnc(COc3ccc(Cl)cc3)o2)c(C)c1 | inactive: 23.1%
15 | O=C(Nc1ccc2nc(SCC(=O)N3CCOCC3)sc2c1)c1ccccc1Cl | inactive: -2.2%
16 | O=C(Cn1c(=O)n2nc(-c3cccc(F)c3)nc2c2ccccc21)NCc1ccc(Cl)cc1 | inactive: 21.7%
17 | COc1cccc(NC(=O)Cn2c(=O)n(Cc3ccco3)c(=O)c3cc(OC)c(OC)cc32)c1 | active: 74%
18 | CNC(=O)C1CCN(c2nc3ccccc3nc2C(F)(F)F)CC1 | inactive: -6.72%
19 | O=C(Nc1ccc(C(F)(F)F)cc1)N1CCC(N2CCCCC2)CC1 | inactive: -11.1%
20 | CCc1ccc(NC(=O)N2CCN(C(=O)c3nsc4ccccc34)CC2)cc1 | inactive: -4.85%
21 | Cc1ccsc1CN1CCc2nc(N3CCN(c4ccccc4F)CC3)ncc2C1 | inactive: -7.69%
22 | COc1cc(Cl)c(C)cc1NC(=O)c1cnc2c(-c3cccc(C)c3)c(C)nn2c1C | inactive: -14.8%
23 | CCOc1ccc(OCC)c(Nc2nc3ccc(Cl)cc3n3cnnc23)c1 | inactive: -20.6%
24 | COc1cccc(CNC(=O)Cn2c(C)c3cnn(-c4ccccc4)c(=O)c3c2C)c1 | inactive: -19.2%
25 | CCCN(C(=O)Cn1cc(S(=O)(=O)N2CCN(c3ccccc3F)CC2)c2ccccc2c1=O)c1cccc(C)c1 | inactive: -3.94%
26 | CC(C)CN(CCNC(=O)c1cc(-c2ccc(Cl)s2)nc2ccccc12)CC(C)C | inactive: -11.4%
27 | CC(C)(C)C(=O)Cn1c(=O)n(-c2ccc(Cl)c(Cl)c2)c(=O)c2c3c(sc21)CCCC3 | inactive: -2.03%

Row | Compound | activation
28 | COCc1cc(C)nc2sc(C(=O)Nc3cc(C)ccc3F)c(N)c12 | inactive: -20.4%
29 | Cc1cc(C)cc(N2CCn3c2nc2c3c(=O)n(CCCc3ccccc3)c(=O)n2C)c1 | inactive: -4.5%
30 | COc1ccc(CCNC(=O)Cn2cc(C(=O)c3ccc(F)cc3)c(=O)c3ccc(C)nc32)cc1OC | inactive: -0.903%
31 | Cc1ccc(CNC(=O)CCC(=O)N2CCSc3ccccc32)cc1 | inactive: -13.4%
32 | CN(C(=O)CSc1nnc(-c2ccc([N+](=O)[O-])cc2)o1)c1ccccc1 | inactive: 33.7%
33 | Cc1ccc(CNC(=O)CCCn2c(=O)c3ccccc3n(Cc3ccc(Cl)cc3)c2=O)cc1 | inactive: -0.341%
34 | COCCCNC(=O)C1CCCN(c2nn3cc(-c4ccc(C)cc4)nc3s2)C1 (stereo not drawn) | inactive: -12.1%
35 | Cc1ccc(-c2nc3cc(C(C)C)ccc3o2)cc1NC(=O)c1cc([N+](=O)[O-])ccc1N1CCOCC1 | inactive: -7.78%
36 | CCOc1ccc(-c2noc(CSc3nnc(Cc4ccccc4)n3-c3cccc(C)c3)n2)cc1 | inactive: -27.8%
37 | CCOc1ccc(NC(=O)CN(C)S(=O)(=O)c2cnc[nH]2)cc1 | inactive: -8.69%
38 | O=C(CSc1nnc2[nH]c(=O)cc(-c3ccccc3)n12)Nc1cc(C(F)(F)F)ccc1Cl | inactive: -6.12%
39 | Nc1c(C(=O)Nc2cccc(C(F)(F)F)c2)c2ccccn2c1C(=O)c1ccccc1 | inactive: 31.3%
40 | CCC1Nc2cc(Cl)c(S(N)(=O)=O)cc2S(=O)(=O)N1 (stereo not drawn) | inactive: -13.9%
41 | CC(=O)Nc1nonc1-c1nc2ccccc2n1Cc1ccccc1Br | inactive: -16.7%
42 | COc1cc2c(cc1OC)C(COc1ccc3c(C)cc(=O)oc3c1)N(C(=O)CC(C)C)CC2 (stereo not drawn) | inactive: -15.1%
43 | Cc1ccc2oc(-c3cc(NC(=O)/C=C/c4ccco4)ccc3Cl)nc2c1 | inactive: -16.4%
44 | Cc1ccc2c(c1)N(C(=O)Nc1cccc3c1CCCC3)CC(C)O2 (stereo not drawn) | inactive: -31.6%
45 | Brc1ccc2nc(SCCOc3ccccc3)[nH]c2c1 | inactive: 15.3%
46 | CCOC(=O)c1noc2nc(C)n(Cc3ccc([N+](=O)[O-])cc3)c(=O)c12 | inactive: -4.82%
47 | Cc1cccc(Cn2nnc3c(=O)[nH]c(C4CCN(C(=O)c5ccc(F)cc5)CC4)nc32)c1 | inactive: -12.5%
48 | COC(=O)c1cc(NC(=O)c2ccc(-c3ccc(Cl)cc3Cl)o2)cc(C(=O)OC)c1 | inactive: -1.51%
49 | COc1ccc(NC(=O)CCc2c(C)nc3c(-c4ccc(F)cc4)c(C)nn3c2C)c(OC)c1 | inactive: 8.5%
50 | Cc1ccccc1CN1CCCN(CC(=O)Nc2ccc3c(c2)OCCO3)S1(=O)=O | inactive: 26.7%
51 | CCn1c(=O)cc(SCC(=O)N2CCN(c3ccccc3F)CC2)c2ccccc21 | inactive: -1.05%
52 | O=C(NCc1cccc(Cl)c1)C1CCCN(c2ncnc3onc(-c4ccc(F)cc4)c23)C1 (stereo not drawn) | inactive: -17.9%
53 | COc1ccccc1NC(=O)c1cc(S(=O)(=O)NCCC2=CCCCC2)ccc1F | inactive: -15.7%
